Laboratory results: the supplement of paper PMC3334620
Over roughly 33,000 sequences, “E-score (-0.5 to 0.5)” has its median near -0.032; the highest 2% begin near 0.36. This is one part of the list.

Target: T1, Sko1 (UniProt Q02100)
T1 sequence: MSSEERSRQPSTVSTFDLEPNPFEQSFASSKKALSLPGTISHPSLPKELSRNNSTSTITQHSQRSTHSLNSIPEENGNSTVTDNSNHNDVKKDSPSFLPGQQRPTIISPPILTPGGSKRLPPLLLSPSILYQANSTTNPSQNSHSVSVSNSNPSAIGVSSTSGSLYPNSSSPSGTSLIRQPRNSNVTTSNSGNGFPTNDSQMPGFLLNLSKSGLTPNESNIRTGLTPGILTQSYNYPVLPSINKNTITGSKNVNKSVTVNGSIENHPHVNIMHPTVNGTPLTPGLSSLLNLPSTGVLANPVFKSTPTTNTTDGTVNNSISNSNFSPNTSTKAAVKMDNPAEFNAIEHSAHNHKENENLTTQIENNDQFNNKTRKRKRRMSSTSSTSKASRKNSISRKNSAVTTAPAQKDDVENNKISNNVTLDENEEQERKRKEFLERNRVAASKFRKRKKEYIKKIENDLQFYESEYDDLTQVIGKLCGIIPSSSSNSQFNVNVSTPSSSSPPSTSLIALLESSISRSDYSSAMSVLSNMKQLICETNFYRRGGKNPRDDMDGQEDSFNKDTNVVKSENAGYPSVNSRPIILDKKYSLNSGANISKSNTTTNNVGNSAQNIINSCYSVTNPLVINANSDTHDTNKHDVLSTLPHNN
Test: PBM E-score (8-mer binding enrichment) (E-score (-0.5 to 0.5)); higher = stronger / more preferred TF binding; most listed sequences are background and not binding sites
Details: protein concentration: 200 nM; construct: GST-full length
Description: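 Universal 'all 10-mer' protein binding microarrays (Agilent AMADID 015681) probed with GST-tagged S. cerevisiae TFs (full-length or DBD) made by in vitro transcription/translation (PURExpress), about 100-200 nM. Bound TF was detected with fluorescent anti-GST. Each ungapped 8-mer (which stands for itself and its reverse complement) is scored by the PBM enrichment score (E-score), a modified Wilcoxon-Mann-Whitney statistic from -0.5 to +0.5, computed with the Universal PBM Analysis Suite. Scale: above 0.35 generally sequence-specific binding.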

Sequence | PBM E-score
AGGGCACC | -0.283
GTGGTGTA | 0.109
AGCGACTC | -0.155
GCTAGTCA | -0.0064
CGCAGAGA | -0.0897
GGTGAAAA | -0.0427
AATAAATA | 0.344
GGGCCGGA | -0.212
GGTGCAAA | -0.21
ACCAGACG | 0.154
ATACCAGA | -0.0271
AATCAGGC | 0.0204
GTTAAAGA | 0.0721
CAGTAGCA | -0.201
ACCCTCCT | -0.203
GATTGAGC | 0.0464
ACGTACGA | 0.414
CAGCCGTA | -0.199
ATGGCGAG | -0.0155
AGCCCGTG | -0.337
CACGATGA | 0.166
AGTATGGA | 0.0149
ACGTGTCC | 0.318
AGTTATCC | -0.051
TGCGGGAA | -0.0903

Sequence | PBM E-score
CTAGCTGA | -0.0288
AGTAAGAA | 0.0814
AAGAGAAA | -0.03
GCTCAACC | -0.187
GAAATTGA | 0.0914
AAAGCACG | 0.196
CGAAAGGA | 0.0147
CACCCCCA | -0.195
GCATTCTA | 0.00058
AAGACCTG | -0.147
AAAGCGAG | -0.0306
GCGTGGGA | 0.0177
CCAAACAC | 0.0445
AACCGCTG | -0.182
AATACCAG | -0.0482
TGTCCTAA | 0.0458
AAATACCA | 0.064
GAAGCTAC | -0.0154
AACACAAC | 0.146
AAAGCAAT | 0.0661
GGCTTACA | -0.0747
AAGGGACA | -0.167
TACGTATA | 0.483
GGATGGCA | -0.13
AGAGTATC | -0.0677

Sequence | PBM E-score
GGGGCGAA | -0.085
ACTGTGCG | 0.0766
ATTGTGTG | 0.0446
ACCTCCGA | -0.202
GCCCTCCA | -0.279
CCATTACG | 0.438
ATCTACCC | 0.0564
AGGTTTTG | -0.0965
CCCACACG | 0.0941
CACCCCCG | -0.0715
ACCGGTGA | -0.162
ACAACTCT | 0.054
ACAACTGA | 0.0766
AGATCAAC | 0.157
AGGTACCA | -0.0384
CATACTAG | 0.159
ATGTTGCG | 0.259
ATCTAAGC | -0.0874
CCTGTATC | -0.11
ATCCAACA | 0.0619
GCCGAGTA | -0.209
AAGGGAAA | -0.116
CCGAAGCG | -0.231
ACGAGGCC | -0.213
ATGGTGTG | 0.0906

Sequence | PBM E-score
ACTTCCAC | -0.0156
GCTTTCAC | -0.0447
AACGGGGG | -0.216
ACGCGAGT | 0.14
AGATATAG | 0.0612
AGGTCTAG | 0.00053
GGTCGACA | -0.0784
CATAGCAG | -0.12
ACGAGCTC | -0.0251
GATACCAC | 0.0215
TGTCTGAA | 0.0157
GGGATACC | -0.283
ATAGTGTA | 0.0563
CACAAGAA | 0.129
AGGATGGG | -0.164
AGTTTTCA | -0.0442
AAGCTTCT | -0.0252
AAGCAAAC | 0.135
AGTAACCG | 0.0181
CGTTGGAA | 0.115
AACATTGC | -0.044
CCTCCCCA | -0.178
AACTCAGC | -0.207
CGTAGGGA | 0.266
CAATGAAA | 0.0377

Sequence | PBM E-score
ACCATTCC | -0.182
ACGGACAG | -0.0519
AAAGAACG | 0.143
CTTTGTAA | 0.241
AGCAAGGG | -0.159
GAGCCGGA | -0.308
AACGTACC | 0.223
CGCACATC | 0.133
CTCTCGTC | 0.0626
AAGGAACA | 0.0249
AATGGCCG | -0.0508
ATATCGTG | 0.132
GAAGTGCC | -0.102
GGGATTAC | 0.196
ATTCGGCC | -0.263
GTCATCCA | 0.33
TATGCATA | 0.117
ACTTTCCA | 0.108
CATTTAGA | 0.0163
CTCAGAGA | -0.223
TGGTTAAA | 0.139
GTGAATAA | 0.256
AGGACCCT | -0.181
CGTAAAAA | 0.333
AGACACAA | 0.101

Sequence | PBM E-score
ATGCTTTG | 0.0473
ATAATTAT | 0.326
ACCTTTCT | 0.00318
CTTGTGCC | -0.136
ATAAATGC | 0.0441
CCTCTACC | -0.298
ACAGAGGG | -0.238
ATCAACCG | 0.00155
CCCCAGGC | -0.404
ATTGTATC | 0.132
CTCACGGA | -0.13
ACACTGCC | -0.0648
ATTGGGAC | -0.0244
CCTTGCGC | -0.223
CCTACACG | 0.065
ACAGCAGA | -0.163
CCAAAGGG | -0.245
GGACATCC | -0.323
TTAATGAA | 0.185
GCTTCCCA | -0.117
CTATCAAC | 0.106
ATATCGAT | 0.0401
AAAGCTTC | -0.0511
CTATGCTA | 0.0609
ATGTTGAC | 0.261

Sequence | PBM E-score
GAGTCTAC | 0.00139
CAGGGGGA | -0.259
GTTTCTAA | 0.0384
CAGTGCAA | 0.0698
GGCGTTTA | 0.00604
GTTTACTA | 0.152
CAAATTTG | -0.0299
TACACCCA | -0.0332
ACCAGTCA | -0.0685
ATAAATTA | 0.292
GTTGACGA | 0.212
CACCATAC | -0.0714
CCAATCCC | -0.216
CAACTCTC | -0.163
AAGTTAAC | 0.161
CGTATGTC | 0.321
ACTATCTC | 0.123
ATCGTTAA | 0.159
CTATTTTA | 0.175
AGTGGTCC | -0.141
CCTGGTAC | -0.0662
GTAATGTA | 0.283
CCAACAAG | -0.0384
CGTTACAG | 0.0116
AGGGTTCA | -0.0666

Sequence | PBM E-score
GTTACACA | 0.129
ATAATAGG | 0.114
ATCATGTC | 0.14
ACTGTACT | -0.28
CTCTATTA | 0.0194
CAGAGGGG | -0.281
AAGGCTAG | -0.0969
ACCCTGTA | -0.222
CGTTGGCC | -0.151
CCCACGAC | -0.122
TCGGGGAA | -0.0484
AATTGAGC | -0.13
CCAACTCC | 0.1
CGGGTTAG | -0.322
AGTCCGCG | -0.0968
AAGGTCAG | -0.192
GAGTGAGC | -0.221
GGGAACAA | 0.0217
CTATTGGC | -0.207
CGAGGGAA | -0.154
ACTCGTCT | -0.0567
AATTTCAC | -0.0415
ACATCTTA | 0.177
AAGCACTC | -0.263
GCGGAGCA | -0.178

Sequence | PBM E-score
CGCATAGC | 0.0848
ACGAAGAT | 0.0179
ACACTGTC | -0.122
GAGAATTA | 0.0781
AGAATCCA | 0.00458
ACCTCCGG | -0.282
GTATGTTA | 0.28
AAGATATT | 0.0367
GATTAGTA | 0.0223
CGACTCGC | -0.0539
GATTAATA | 0.213
GGGGAATA | -0.0497
TAAAACAA | 0.169
ATAACGAC | 0.241
ACCAGACC | -0.0732
CCAACGAC | -0.0877
GTCTCAGA | -0.0958
CGATAAAC | 0.00721
GTACCGTA | 0.036
